Experimental data from US20240376196A1 (HEFEI TG IMMUNOPHARMA, published 2024).

Key:
[1] = molecular target: T1, CD112 on tumor cells (A-375, A-549, MDA-MB-231) (UniProt Q92692 32-538, limits assumed); assay: flow cytometry on A-375 cells, Alexa-647 anti-human IgG, MFI
T1 construct: whole, on cells
T1 sequence (looked up): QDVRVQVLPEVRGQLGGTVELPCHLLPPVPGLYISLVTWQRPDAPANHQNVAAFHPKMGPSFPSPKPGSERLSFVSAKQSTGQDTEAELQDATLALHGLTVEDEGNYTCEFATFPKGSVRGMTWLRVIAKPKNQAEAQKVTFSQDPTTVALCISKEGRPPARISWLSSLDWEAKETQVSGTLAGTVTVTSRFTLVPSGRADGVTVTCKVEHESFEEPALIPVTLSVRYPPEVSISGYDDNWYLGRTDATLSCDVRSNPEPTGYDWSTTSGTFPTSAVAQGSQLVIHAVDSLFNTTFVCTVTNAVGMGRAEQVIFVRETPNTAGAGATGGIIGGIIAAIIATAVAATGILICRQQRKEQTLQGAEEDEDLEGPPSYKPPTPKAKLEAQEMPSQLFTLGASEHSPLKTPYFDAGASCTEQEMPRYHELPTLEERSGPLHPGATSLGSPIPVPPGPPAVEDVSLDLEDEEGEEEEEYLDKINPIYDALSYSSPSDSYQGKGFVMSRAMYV

[2] = molecular target: T1, CD112 on tumor cells (A-375, A-549, …); assay: flow cytometry on A-375 cells, Alexa-647 anti-human IgG, % Binding ratio
[3] = molecular target: T2, CD112 (antigen of the Biacore assay) (UniProt Q92692 32-360, limits assumed); assay: Biacore 8K SPR, antibody captured on protein A chip, antigen as analyte
T2 construct: also called CD112 protein; the antigen
T2 sequence (looked up): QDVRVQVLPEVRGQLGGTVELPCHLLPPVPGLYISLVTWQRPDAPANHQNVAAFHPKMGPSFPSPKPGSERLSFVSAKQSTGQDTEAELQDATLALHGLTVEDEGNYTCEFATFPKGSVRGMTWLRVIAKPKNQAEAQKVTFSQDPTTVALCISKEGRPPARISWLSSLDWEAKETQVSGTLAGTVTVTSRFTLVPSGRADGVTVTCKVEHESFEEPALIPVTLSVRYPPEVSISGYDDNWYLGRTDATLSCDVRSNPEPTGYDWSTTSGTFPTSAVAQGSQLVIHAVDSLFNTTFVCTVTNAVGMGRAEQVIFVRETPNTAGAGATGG

[4] = molecular target: T1, CD112 on tumor cells (A-375, A-549, …); assay: flow cytometry on MDA-MB-231 cells, Alexa-647 anti-human IgG, % Binding ratio
[5] = molecular target: T1, CD112 on tumor cells (A-375, A-549, …); assay: flow cytometry on MDA-MB-231 cells, Alexa-647 anti-human IgG, MFI

B1: humanized antibody h9G11-hIgG1 (antibody)
heavy: EVQLVESGGGLVQPGGSLRLSCAASGFTFSSYYMSWVRQAPGKRLELVAAINSQGGSTYYPDTVKGRFTISRDNAKNTLYLQMNSLRAEDTAVYYCARSDYDWAWFAYWGQGTLVTVSS[omitted - human IgG1 constant region]
light: DIVMTQSPSSLAVSLGERATINCKSSQSLLYSSNQKNYLAWYQQKPGQPPKLLIYWASTRESGVPDRFSGSGSGTDFTLTISSLQAEDVAVYYCQQYYRYPPTFGGGTKLEIKRTVAAPSVFIFPPSDEQLKSGTASVVCLLNNFYPREAKVQWKVDNALQSGNSQESVTEQDSKDSTYSLSSTLTLSKADYEKHKVYACEVTHQGLSSPVTKSFNRGEC
notes: also called parental antibody h9G11; parent humanized antibody h9G11
In the case of B1, the “EC50 (read off the curve)” value [1] is reported as ~0.2 µg/mL, the “EC50 (read off the curve)” value [2] is reported as ~0.02 µg/mL and the Kd [3] is reported as 51.4 nM. The “EC50 (read off the curve)” value [4] was ~0.01 µg/mL and the “EC50 (read off the curve)” value [5] was ~0.2 µg/mL.
